According to a collection of fitness landscapes (doi:10.1038/s41467-024-54723-y):
Whole data set: some 18,000 sequences, median “TetR repression strength (sort-seq, GFP reporter)” near 0.23, cut for the highest 2% near 0.68. The list shows a part of the results.

Biological target: TetR (class B, Tn10) (UniProt P04483)
Assay: TetR repression strength (sort-seq, GFP reporter) (relative to tetO2 = 1); higher = stronger repression
Conditions: E. coli
Summary of the method: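 Repression strength is the top bin index plus one minus the read-weighted mean bin, relative to the unaltered operator's value. A low-copy library in E. coli SIG10-MAX randomized eight operator positions between a constitutive promoter and sfGFP, with TetR expressed constitutively; cells grew 5 h at 37 °C in LB with 50 µg/mL chloramphenicol and 10^6 were FACS-sorted into 13 bins that were each Illumina-sequenced. Three independent transformations were averaged, keeping only members with ≥30 reads in all replicates and CV ≤0.5.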

UniProt P04483, sequence (P04483 whole entry): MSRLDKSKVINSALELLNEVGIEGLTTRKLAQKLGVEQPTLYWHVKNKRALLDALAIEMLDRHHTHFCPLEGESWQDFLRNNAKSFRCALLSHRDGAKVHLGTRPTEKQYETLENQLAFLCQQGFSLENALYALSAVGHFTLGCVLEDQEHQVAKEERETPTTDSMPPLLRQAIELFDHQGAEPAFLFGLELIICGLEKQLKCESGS

Sequence	TetR repression strength
TCCCGCGAAGTGCGTGAGA	0.0329
TCCCGCTAAGTGGTGGAGA	0.192
TCCCATTAAGTTTGCGAGA	0.273
TCCCATGAAGTTTGCGAGA	0.031
TCCCCTTGAGTTGAAGAGA	0.256
TCCCTACTAGTATATGAGA	0.44
TCCCCTGTAGTGGCAGAGA	0.106
TCCCTGGGAGTACCGGAGA	0.421
TCCCTGATAGTTGGAGAGA	0.258
TCCCTTCAAGTTATGGAGA	0.448
TCCCGGTGAGTTGAAGAGA	0.275
TCCCAAAGAGTACAAGAGA	0.43
TCCCATTGAGTCAGAGAGA	0.205
TCCCAGATAGTCGTGGAGA	0.108
TCCCTAGTAGTAAACGAGA	0.187
TCCCTGAGAGTAGGAGAGA	0.263
TCCCCTAAAGTTAGAGAGA	0.535
TCCCTTATAGTGTCGGAGA	0.12
TCCCTCTCAGTATATGAGA	0.377
TCCCGGGAAGTCGGCGAGA	0.239
TCCCTTCCAGTGTGGGAGA	0.139
TCCCAGGCAGTTTCAGAGA	0.104
TCCCGGGGAGTAAGCGAGA	0.195
TCCCGGGGAGTCGAAGAGA	0.114
TCCCCGCCAGTAGCTGAGA	0.39
TCCCTCAAAGTGGTAGAGA	0.15

Sequence	TetR repression strength
TCCCTGTGAGTGGGAGAGA	0.103
TCCCGTCGAGTTCTCGAGA	0
TCCCTTTTAGTGAATGAGA	0.889
TCCCTTCGAGTATTGGAGA	0.417
TCCCCGTGAGTTCAGGAGA	0.268
TCCCGTCGAGTAAGTGAGA	0.219
TCCCGGTAAGTTGGGGAGA	0.323
TCCCCACCAGTCCCCGAGA	0.394
TCCCGTCAAGTGGTTGAGA	0.152
TCCCAGGTAGTTGCGGAGA	0.158
TCCCACGTAGTCAACGAGA	0.604
TCCCGTTTAGTTAACGAGA	0.325
TCCCTGTAAGTGGAGGAGA	0.232
TCCCTTGTAGTCTAGGAGA	0.222
TCCCAGCCAGTTCGCGAGA	0.374
TCCCGCACAGTTTGCGAGA	0.296
TCCCTGTCAGTACTAGAGA	0.596
TCCCTAGCAGTCAGAGAGA	0.0683
TCCCAGGAAGTTGGCGAGA	0.222
TCCCATAGAGTCGGTGAGA	0.178
TCCCTGTCAGTTCGCGAGA	0.0983
TCCCCTCCAGTTACCGAGA	0.315
TCCCTAGAAGTGGAGGAGA	0.498
TCCCTTGTAGTAATAGAGA	0.0851
TCCCAAATAGTGGAAGAGA	0.214
TCCCGGCCAGTATTGGAGA	0.164

Sequence	TetR repression strength
TCCCAACTAGTTAGCGAGA	0.415
TCCCAGAGAGTACCCGAGA	0.212
TCCCAGATAGTCAGGGAGA	0.335
TCCCTGGGAGTGATCGAGA	0.154
TCCCCAACAGTTTTAGAGA	0.419
TCCCTTCGAGTTATGGAGA	0.35
TCCCAACCAGTATTCGAGA	0.305
TCCCCACGAGTCCGTGAGA	0.293
TCCCGTCTAGTCGGTGAGA	0.215
TCCCCACTAGTACGCGAGA	0.317
TCCCTGGCAGTTAGAGAGA	0.258
TCCCTATCAGTGTTTGAGA	0.767
TCCCCCGAAGTGATGGAGA	0.357
TCCCCTTTAGTTGTCGAGA	0.162
TCCCCACTAGTAGGGGAGA	0.133
TCCCAACGAGTAGGAGAGA	0.168
TCCCGAGTAGTTGGAGAGA	0.316
TCCCAGTGAGTCAACGAGA	0.509
TCCCGAGCAGTGGTGGAGA	0.167
TCCCACTCAGTGCATGAGA	0.218
TCCCTTGTAGTTGGTGAGA	0.232
TCCCGGTGAGTGAACGAGA	0.819
TCCCGCGAAGTTTTAGAGA	0.269
TCCCACGAAGTAGCGGAGA	0.192
TCCCGCCCAGTAGTAGAGA	0.323
TCCCGAAGAGTGGGCGAGA	0.432

Sequence	TetR repression strength
TCCCGGCGAGTAAGGGAGA	0.0421
TCCCCTTAAGTCTGAGAGA	0.263
TCCCAGGAAGTCTGTGAGA	0.115
TCCCGCATAGTGTTCGAGA	0.175
TCCCGGTAAGTGTCCGAGA	0.392
TCCCCCTAAGTGATCGAGA	0.494
TCCCGGGGAGTTAATGAGA	0.944
TCCCAACGAGTTTTCGAGA	0.244
TCCCCTAAAGTGAAGGAGA	0.721
TCCCATGTAGTATAGGAGA	0.117
TCCCGCGCAGTCATTGAGA	0.207
TCCCACGCAGTCGTTGAGA	0.338
TCCCTTTCAGTTACAGAGA	0.363
TCCCTTCCAGTAATAGAGA	0.444
TCCCGGAGAGTAGGCGAGA	0.184
TCCCGAGTAGTATGTGAGA	0.223
TCCCAACAAGTATCTGAGA	0.112
TCCCATAAAGTCCGTGAGA	0.338
TCCCAGAGAGTGAGTGAGA	0.188
TCCCGCGCAGTGATTGAGA	0.444
TCCCATCGAGTCATCGAGA	0.229
TCCCATAAAGTTCATGAGA	0.36
TCCCGCGGAGTCTTGGAGA	0.21
TCCCAGTAAGTACACGAGA	0.213
TCCCTGATAGTGGTAGAGA	0.065
TCCCAGAAAGTGGATGAGA	0.0183

Sequence	TetR repression strength
TCCCGGCAAGTAAGCGAGA	0.0864
TCCCATTGAGTACCCGAGA	0.414
TCCCGGTTAGTCGTGGAGA	0.199
TCCCTTCTAGTCGTCGAGA	0.397
TCCCGGTAAGTCGGGGAGA	0.171
TCCCGTCAAGTTATCGAGA	0.21
TCCCGTGTAGTGAATGAGA	0.204
TCCCACAAAGTGGCCGAGA	0.163
TCCCAGAGAGTACATGAGA	0.306
TCCCGACTAGTTTAGGAGA	0.298
TCCCAATAAGTAATGGAGA	0.352
TCCCGAGTAGTTTATGAGA	0.247
TCCCCTCAAGTTGGAGAGA	0.0403
TCCCCCTCAGTGGTAGAGA	0.399
TCCCCTTTAGTGGAGGAGA	0.184
TCCCTACGAGTAAGCGAGA	0.164
TCCCACCAAGTACAGGAGA	0.186
TCCCCGAGAGTGAGGGAGA	0.129
TCCCTTGGAGTGCAGGAGA	0.0653
TCCCCGAGAGTTTTCGAGA	0.224
TCCCGCGGAGTGGCCGAGA	0.171
TCCCTAGAAGTTTTAGAGA	0.171
TCCCCGAAAGTAGCTGAGA	0.253
TCCCGTTCAGTCGGGGAGA	0.315
TCCCTGGGAGTATATGAGA	0.643
TCCCGGCTAGTATACGAGA	0.226

Sequence	TetR repression strength
TCCCCGCAAGTGTTGGAGA	0.0176
TCCCTCGCAGTATTAGAGA	0.398
TCCCGGGAAGTGGGGGAGA	0.274
TCCCGCGCAGTTGACGAGA	0.361
TCCCTAGCAGTACAAGAGA	0.0777
TCCCACGTAGTGGTAGAGA	0.214
TCCCGTCCAGTTTCCGAGA	0.287
TCCCGGAAAGTGCCAGAGA	0.323
TCCCTGCGAGTGGCTGAGA	0.148
TCCCAGTGAGTGGCCGAGA	0.239
TCCCGAAGAGTTGGCGAGA	0.111
TCCCGGCGAGTGAGCGAGA	0.262
TCCCTGTAAGTATTTGAGA	0.253
TCCCGTGCAGTCTTCGAGA	0.514
TCCCTTCGAGTCGGAGAGA	0.17
TCCCCTACAGTGGGGGAGA	0.207
TCCCATGAAGTAACGGAGA	0.0402
TCCCACTGAGTGCAGGAGA	0.136
TCCCTATGAGTGCACGAGA	0.483
TCCCCAATAGTAGACGAGA	0.295
TCCCGGGAAGTTTGTGAGA	0.247
TCCCATACAGTGAAGGAGA	0.183
TCCCAAGTAGTCCATGAGA	0.257
TCCCAGGGAGTCCTCGAGA	0.267
TCCCAACCAGTACTGGAGA	0.0854
TCCCTAGGAGTAGTTGAGA	0.252

Sequence	TetR repression strength
TCCCAGTTAGTGCTTGAGA	0.327
TCCCCGGAAGTTCGTGAGA	0.137
TCCCGGCTAGTCACAGAGA	0.479
TCCCGTCTAGTAGTGGAGA	0.468
TCCCGCGTAGTGCGGGAGA	0.292
TCCCGAGCAGTATAGGAGA	0.334
TCCCGTAGAGTTTGTGAGA	0.179
TCCCCGAGAGTAAACGAGA	0.4
TCCCGCCGAGTCCTAGAGA	0.636
TCCCTGTAAGTTCGCGAGA	0.128
TCCCAATAAGTTTGGGAGA	0.167
TCCCTTGGAGTGGTGGAGA	0.222
TCCCAACCAGTGGTCGAGA	0.057
TCCCCTAGAGTCGGGGAGA	0.175
TCCCTAGGAGTGCTTGAGA	0.57
TCCCTACTAGTATGTGAGA	0.426
TCCCAACCAGTGGTAGAGA	0.363
TCCCAATCAGTTATAGAGA	0.58
TCCCAGCAAGTTCGGGAGA	0.241
TCCCAGACAGTGGTAGAGA	0.194
TCCCCTATAGTACTAGAGA	0.317
TCCCGACTAGTTAGTGAGA	0.25
TCCCCACGAGTTGGAGAGA	0.277
TCCCTTTCAGTGTAAGAGA	0.296
TCCCGCTGAGTTTTGGAGA	0.411
TCCCGGGCAGTAGGTGAGA	0.61

Sequence	TetR repression strength
TCCCTCAAAGTGTCCGAGA	0.31
TCCCTTGAAGTACTCGAGA	0.155
TCCCCAAGAGTCCAGGAGA	0.132
TCCCGCTGAGTCGTTGAGA	0.136
TCCCGCAGAGTTGAAGAGA	0.285
TCCCCCAAAGTATGTGAGA	0.23
TCCCTTGGAGTTGCCGAGA	0.246
TCCCCACCAGTAGATGAGA	0.346
TCCCCTCCAGTGTGGGAGA	0.133
TCCCGTTAAGTGCCTGAGA	0.419
TCCCTACCAGTTGGGGAGA	0.288
TCCCTGCAAGTGGGAGAGA	0.321
TCCCGTCCAGTGCTGGAGA	0.212
TCCCCTGCAGTGATAGAGA	0.492
TCCCTAGCAGTAGTAGAGA	0.681
TCCCGCGTAGTATAGGAGA	0.2
TCCCATTGAGTCGATGAGA	0.166
TCCCATCTAGTTGGAGAGA	0.371
TCCCCAAGAGTCTTGGAGA	0.193
TCCCATACAGTGAAAGAGA	0.353
TCCCCGTGAGTTTCTGAGA	0.181
TCCCGGGCAGTGGTTGAGA	0.334
